This is one part of the list. Many values rest on one well or one pass, so single values are uncertain.
Columns and labels:
Experiment in all cases: cell count relative to DMSO control; melanoma cells; higher = more viable cells
Settings in all cases: library dose: low library concentration; 72 h
MZ2-MEL = test system: MZ2-MEL
MeWo = test system: MeWo
RPMI7951 = test system: RPMI7951
RVH-421 = test system: RVH-421
SkMel28 = test system: SkMel28
SkMel2 = test system: SkMel2
SkMel30 = test system: SkMel30
SkMel5 = test system: SkMel5
UACC257 = test system: UACC257
UACC62 = test system: UACC62
WM115 = test system: WM115
WM1716 = test system: WM1716
WM1745 = test system: WM1745
WM3526 = test system: WM3526
WM3619 = test system: WM3619
WM451Lu = test system: WM451Lu
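Note: cell number obtained by counting DAPI-stained nuclei in high-throughput microscope images with image analysis software, screen run in 1,536-well plates.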

Structure (SMILES) | cell count (MZ2-MEL) [%] | cell count (MeWo) [%] | cell count (RPMI7951) [%] | cell count (RVH-421) [%] | cell count (SkMel28) [%] | cell count (SkMel2) [%] | cell count (SkMel30) [%] | cell count (SkMel5) [%] | cell count (UACC257) [%] | cell count (UACC62) [%] | cell count (WM115) [%] | cell count (WM1716) [%] | cell count (WM1745) [%] | cell count (WM3526) [%] | cell count (WM3619) [%] | cell count (WM451Lu) [%]
O=C(Nc1cc(C(F)(F)F)cc(C(F)(F)F)c1)c1cc(Cl)ccc1O + O=C(Nc1ccccc1)c1cc([N+](=O)[O-])ccc1Cl [GW9662] (first compound 0.016 µM, partner dose 2 µM) | 92.4 | 106 | 110 | 101 | 90.4 | 87.6 | 87.2 | 94.4 | 65.9 | 72.5 | 103 | 105 | 97.8 | 86.7 | 100 | 95.7
O=C(O)c1ccc2c(c1)nc(Nc1cccc(Cl)c1)c1ccncc12 + O=C(O)c1ccc(-c2c[nH]c3ncc(-c4ccccc4)cc23)cc1C1CCCC1 [GSK650394] (first compound 0.4 µM, partner dose 0.16 µM) | 92.5 | 82.3 | 97.9 | 113 | 94.1 | 89.3 | 100 | 96.6 | 75.9 | 99.3 | 93.3 | 86 | 86.9 | 87.5 | 118 | 88.6
Cn1nnc2c(C(N)=O)ncn2c1=O [temozolomide] + NCC(=O)Nc1ccc(-n2nc(C(F)(F)F)cc2-c2ccc3c(ccc4ccccc43)c2)cc1 [OSU03012] (first compound 2 µM, partner dose 1 µM) | 85.6 | 53.7 | 99.1 | 103 | 75.2 | 64.2 | 44.4 | 83.3 | 128 | 86.1 | 101 | 101 | 97.6 | 59.8 | 101 | 55.6
O=C(O)[C@@H]1[O][Sb](=[O])([O][Sb]2(=[O])[O][C@H]([C@H](O)CO)[C@H](O)[C@H](C(=O)O)[O]2)[O][C@H]([C@H](O)CO)[C@@H]1O (stereo not given in full) [stibogluconate] + COc1ccc(COc2ccc(Cc3cnc(N)nc3N)cc2OC)cc1 [GW2580] (first compound 2 µM, partner dose 1 µM) | 101 | 91.9 | 112 | 81.8 | 96 | 101 | 115 | 106 | 80.6 | 85.9 | 99.1 | 92.1 | 95.1 | 84.6 | 116 | 107
O=C(O)[C@@H]1[O][Sb](=[O])([O][Sb]2(=[O])[O][C@H]([C@H](O)CO)[C@H](O)[C@H](C(=O)O)[O]2)[O][C@H]([C@H](O)CO)[C@@H]1O (stereo not given in full) [stibogluconate] + CN(NC(=O)CC(=O)NN(C)C(=S)c1ccccc1)C(=S)c1ccccc1 [STA4783] (first compound 2 µM, partner dose 0.006 µM) | 108 | 105 | 91.2 | 99.2 | 86.6 | 106 | 101 | 106 | 95.9 | 102 | 101 | 81.3 | 91.7 | 93.8 | 112 | 126
O=C(O)[C@@H]1[O][Sb](=[O])([O][Sb]2(=[O])[O][C@H]([C@H](O)CO)[C@H](O)[C@H](C(=O)O)[O]2)[O][C@H]([C@H](O)CO)[C@@H]1O (stereo not given in full) [stibogluconate] + COc1cc(N2CCC(N3CCN(C)CC3)CC2)ccc1Nc1ncc(Cl)c(Nc2ccccc2S(=O)(=O)C(C)C)n1 [NVP-TAE684] (first compound 2 µM, partner dose 0.08 µM) | 95.2 | 77.2 | 98.1 | 63.1 | 99.3 | 94.2 | 99.6 | 90.8 | 75.2 | 106 | 100 | 88.4 | 88.6 | 87.6 | 97.1 | 86
Cn1nnc2c(C(N)=O)ncn2c1=O [temozolomide] + O=C(Nc1cccc(Cl)c1)Nc1ncc(CCNc2ncnc3ccsc23)s1 [SNS314] (first compound 2 µM, partner dose 0.0008 µM) | 90.2 | 112 | 95.9 | 74.4 | 73.2 | 108 | 105 | 94.7 | 88.8 | 83.6 | 85.2 | 88.5 | 103 | 105 | 80.6 | 135
O=C(O)c1ccc2c(c1)nc(Nc1cccc(Cl)c1)c1ccncc12 + O=C(Nc1cccc(Cl)c1)Nc1ncc(CCNc2ncnc3ccsc23)s1 [SNS314] (first compound 0.4 µM, partner dose 0.0008 µM) | 104 | 85.3 | 125 | 88.4 | 105 | 105 | 105 | 117 | 90.5 | 94.6 | 76.2 | 84 | 99.1 | 83.5 | 99.8 | 107
O=C(Nc1cc(C(F)(F)F)cc(C(F)(F)F)c1)c1cc(Cl)ccc1O + Cc1ccc(NC(=O)c2cccc(N(C)C)c2)cc1NC(=O)c1ccc(O)cc1 [ZM336372] (first compound 0.016 µM, partner dose 2 µM) | 66.7 | 91.5 | 90.8 | 99.2 | 94.7 | 102 | 97.4 | 101 | 84.9 | 91.2 | 107 | 96 | 80.2 | 107 | 90.7 | 91.9
O=C(Nc1cc(C(F)(F)F)cc(C(F)(F)F)c1)c1cc(Cl)ccc1O + O=C(O)c1ccc(-c2c[nH]c3ncc(-c4ccccc4)cc23)cc1C1CCCC1 [GSK650394] (first compound 0.016 µM, partner dose 0.16 µM) | 94.4 | 85.6 | 86.3 | 95.7 | 85.6 | 96.3 | 94.3 | 87.8 | 63.6 | 82.3 | 91.2 | 96.5 | 112 | 107 | 96.5 | 101
